About 530 (0.13%) of roughly 410,000 compounds were called active. The inconclusive results got no clear call from the source; some entries with a clear call stand among them for comparison. Calls follow the shape of the dose curve; as a rule, active = well fitted inhibition curve with a large enough effect; inconclusive = small, poorly fitted or top-dose-only effect, or another doubt; inactive = no such curve, though single readings can be large or run the other way. Potencies beside an inconclusive call are fits to weak or partial responses and may not hold up.
assay: qHTS of GLP-1 Receptor Inverse Agonists: Cytotox Screen; conditions: HEK293 cAMP-luciferase reporter cells, luminescence, 24 h; activity change, negative = inhibition: at 38.3 µM (top of the series) unless noted
How it was run: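 1536-well qHTS counterscreen of the MLSMR; 200 cells/uL, 12 h pre-incubation, 23 nL cpd, 24 h at 37 deg C 5% CO2, luciferase detection reagent, 12 min RT, luminescence. Inhibition = undesired.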
% is scaled to controls: 0 for no effect and ±100 for the full control effect; potency is read from the fitted curve at half-maximal effect.

Compound	Potency	activity change, negative = inhibition
CC(=O)c1ccc(Nc2nc(-c3sc(C)nc3C)cs2)cc1	inconclusive: 12.6 µM [inhibitor, partial curve, poor fit]	
CCOC(=O)c1cc([N+](=O)[O-])sc1NC(=O)c1ccc(S(=O)(=O)N2CC3(C)CC2CC(C)(C)C3)cc1 (centres undefined)		inactive: -32%
Cc1ccc(S(=O)(=O)Cc2ccc(C(=O)N3CCN(c4ccc(F)cc4)CC3)o2)cc1	inconclusive: 10 µM [inhibitor, single point]	
Cc1cccc(OCc2n[nH]c(=S)n2-c2ccccc2)c1	inconclusive: 28.2 µM [inhibitor, single point]	
C/C(=N\NC(=O)c1ccc(N(C)C)cc1)c1ccc(C)cc1C	inconclusive: 28.2 µM [inhibitor, single point]	
COc1nc(-c2ccc(C)cc2)ccc1-c1noc(-c2ccccc2Br)n1		inactive: 5.24%
COc1ccc(C/C(C)=N/NC(=O)c2ccc(C)cc2C)cc1	inconclusive: 11.2 µM [inhibitor, partial curve, poor fit]	
O=C(c1ccc(C(F)(F)F)cc1)N1CCC(c2nc(-c3ccc(S(=O)(=O)N4CCCC4)cc3)no2)CC1		inactive: -10.9%
S=C(Nc1ccc(Cl)cc1)NC1CCCCC1	inconclusive: 11.2 µM [inhibitor, single point]	
O=C(O)c1ccccc1NC(c1ccccc1)c1ccc2cccnc2c1O (centres undefined)	inconclusive: 2.51 µM [inhibitor, full curve, poor fit]	
Cc1cc(C)n(-c2nc(NCCCO)c3c4c(sc3n2)CCCC4)n1	inconclusive: 10 µM [inhibitor, partial curve]	
Cc1ccc(C(=O)Nc2ncc([N+](=O)[O-])s2)cc1		inactive: -23.7%
COc1ccc(C)cc1NC(=O)c1ccc2c(O)c(S(=O)(=O)c3ccccc3)c(=O)[nH]c2c1	inconclusive: 12.6 µM [inhibitor, single point]	
CC(C)CC(=O)NC(=S)NCCc1ccccc1	inconclusive: 28.2 µM [inhibitor, single point]	
CC(=O)CC(=O)NC(=NC1CCCCC1)Nc1nc(C)cc(C)n1	inconclusive: 15.8 µM [inhibitor, single point]	
CCCCCOP(=O)(OCCCCC)C1(NS(=O)(=O)c2ccccc2)C=CC(=O)c2ccccc21 (centres undefined)	inconclusive: 8.91 µM [inhibitor, partial curve, poor fit]	
O=C(NC(=S)Nc1ccc(Cl)cn1)c1cccs1	inconclusive: 5.01 µM [inhibitor, full curve, poor fit]	
Oc1ccc(-c2csc(Nc3ncccn3)n2)cc1O	inconclusive: 28.2 µM [inhibitor, single point]	
CCOC(=O)c1c(C)nc2cc(C)cc(C)n12	inconclusive: 3.55 µM [inhibitor, partial curve]	
Cc1ccc(-c2cn3c(n2)sc2cc(C(=O)NCCCN4CCCCC4)ccc23)cc1	inconclusive: 28.2 µM [inhibitor, single point]	
COc1ccc(C(=O)Nc2cc(-c3cccc(C)c3)nn2-c2ccccc2)cc1		inactive: 6.77%
O=C(CCN1C(=O)/C(=C/c2ccccc2)SC1=S)N[C@@H](CO)Cc1ccccc1	inconclusive: 31.6 µM [inhibitor, single point]	

Compound	Potency	activity change, negative = inhibition
CCOc1ccc(NC(=O)CN(C)C(=O)c2ccc3nc(CC)c(CC)nc3c2)cc1OCC		inactive: -3.52%
CCN1C(=O)[C@H]2[C@@H](c3ccc(-c4ccc(Cl)c(Cl)c4)c(OC)c3)N[C@@](C)(C(=O)OC)[C@H]2C1=O	inconclusive: 28.2 µM [inhibitor, single point]	
Cc1ccc(-c2nc(C#N)c(NCCN3CCCCC3)o2)cc1	inconclusive: 5.01 µM [inhibitor, partial curve]	
CC1=C(C(=O)Nc2ccc([N+](=O)[O-])cc2)C(c2cccc(C(F)(F)F)c2)NC(=S)N1c1ccccc1 (centres undefined)	inconclusive: 8.91 µM [inhibitor, partial curve, poor fit]	
COc1cc(C(=O)N2CCc3ccccc32)cc(OC)c1OC		inactive: -3.65%
O=C1NC(c2cccc3ccccc23)Nc2ccccc21 (centres undefined)	inconclusive: 0.355 µM [inhibitor, full curve, poor fit]	
CCCOc1cccc(-c2cc(C(=O)N/N=C/c3ccccn3)c3ccccc3n2)c1	inconclusive: 5.01 µM [inhibitor, full curve, poor fit]	
C#CCOCCOCCOCCNc1nc(N2CCN(C(=O)CCCCCCCCCCNC(=O)[C@H]([C@@H](C)CC)n3cc(CCCCN=C(N)N)nn3)CC2)nc(N2CCN(C(=O)CCCCCCCCCCNC(=O)[C@H](CO)n3cc(CCCSC)nn3)CC2)n1	inconclusive: 10 µM [inhibitor, partial curve]	
CCSc1nnc(NC(=O)c2ccccn2)s1	inconclusive: 5.62 µM [inhibitor, partial curve, poor fit]	
CCSc1nc2ccccc2n1C(=O)/C=C\c1ccc(OC)c(OC)c1	inconclusive: 6.31 µM [inhibitor, partial curve, poor fit]	
CCOc1cc(CNCCSc2nnnn2C)cc(Br)c1OCc1ccc(F)cc1	inconclusive: 14.1 µM [inhibitor, single point]	
CCc1cc(C)cc(OCCNC(=O)c2cncc(Br)c2)c1	inconclusive: 14.1 µM [inhibitor, single point]	
c1cc2c3c(cccc3c1)NC(c1ccc3c(c1)OCO3)N2	inconclusive: 5.01 µM [inhibitor, partial curve, poor fit]	
COc1ccccc1-n1cc(-c2ccc(Br)cc2)[nH]c1=S		inactive: -8.82%
Oc1ccc2c(c1)OCC1(O)Cc3cc(O)c(O)cc3C21 (centres undefined)	inconclusive: 12.6 µM [inhibitor, single point]	
CC1CCN(S(=O)(=O)c2cccc(C(=O)NCc3cccs3)c2)CC1		inactive: 2.09%
COc1cccc(CN2CCC2(C)C(=O)Nc2cccc(Oc3ccccc3)c2)c1F (centres undefined)	inconclusive: 12.6 µM [inhibitor, partial curve, poor fit]	
COc1cccc(C(=O)Nc2ccc(Cl)c(-c3nc4ccccc4[nH]3)c2)c1	inconclusive: 28.2 µM [inhibitor, partial curve, poor fit]	
CC1CCN(CC(=O)Nc2ccccc2-c2ccccc2)CC1		inactive: 4.19%
Cc1ccc(-c2nn3c(C)nnc3c3ccccc23)cc1S(=O)(=O)N1CCN(CCO)CC1	inconclusive: 11.2 µM [inhibitor, single point]	
Cc1nc(NC(=O)CC(C)C)sc1-c1csc(Nc2ccc(Cl)cc2)n1	inconclusive: 2.24 µM [inhibitor, full curve, poor fit]	
c1ccc(Oc2nnc(-c3cccs3)c3ccccc23)cc1	inconclusive: 28.2 µM [inhibitor, single point]	

Compound	Potency	activity change, negative = inhibition
C=Cc1ccc(Cn2c(C(=O)O)c(CNCc3cccs3)c3ccc(C)cc32)cc1	inconclusive: 11.2 µM [inhibitor, single point]	
COc1ccccc1C(=O)Nc1c(C(=O)N(CCN(C)C)Cc2ccco2)oc2ccccc12	inconclusive: 8.91 µM [inhibitor, partial curve]	
O=C(ONC1=NCCCCC1)c1ccc(Cl)cc1	inconclusive: 14.1 µM [inhibitor, single point]	
S=c1[nH]c2ccccc2n1CCOc1ccccc1	inconclusive: 28.2 µM [inhibitor, single point]	
O=C(CCSCc1cnn(-c2ccccc2)c1-n1cccc1)NCc1ccccc1F		inactive: -3.38%
CCOc1ccc(NC(=O)c2cc3c(-c4ccccc4F)nn(C)c3s2)cc1		inactive: -14.5%
CN(C)CCCN(C(=O)c1ccc(S(=O)(=O)N(C)Cc2ccccc2)cc1)c1nc2c(F)cccc2s1	inconclusive: 10 µM [inhibitor, partial curve, poor fit]	
Cc1onc(-c2c(F)cccc2Cl)c1C(=O)c1ccccc1O	inconclusive: 28.2 µM [inhibitor, single point]	
Cc1c(/C=C/C(=O)c2ccc(O)cc2)cnn1C	inconclusive: 12.6 µM [inhibitor, single point]	
Cc1ccccc1CNC(=O)c1ccc2nc(SCc3ccc(F)cc3)n(C)c2c1		inactive: -9.03%
COc1ccccc1NC(=O)CSc1nncn2c1cc1sccc12		inactive: -4.1%
Cc1cc(C)cc(NC(=O)COC(=O)c2cc(C)oc2C)c1	inconclusive: 1 µM [inhibitor, full curve, poor fit]	
C/C(=C\C(=O)c1ccc(Br)cc1)NCc1ccc(C)cc1		inactive: 4.87%
Cc1ccc([N+](=O)[O-])c(OCCCN2CCC(Cc3ccccc3)CC2)c1	inconclusive: 28.2 µM [inhibitor, single point]	
CC(O)(CS(=O)(=O)Cc1cccc(C(F)(F)F)c1)C(=O)Nc1cccc(C(F)(F)F)c1 (centres undefined)	inconclusive: 6.31 µM [inhibitor, partial curve, poor fit]	
COc1ccc([C@@]2(C(C)C)ON(c3ccccc3C(F)(F)F)C2=O)cc1	inconclusive: 6.31 µM [inhibitor, partial curve, poor fit]	
CCn1c(=O)cc(SCC(=O)NCc2cccc(Cl)c2)c2ccccc21	inconclusive: 8.91 µM [inhibitor, partial curve]	
C=CCn1c(SCc2cccc(F)c2)nc2cc(C(=O)N3CCC(C(N)=O)CC3)ccc2c1=O	inconclusive: 28.2 µM [inhibitor, single point]	
COc1ccc(C(=O)N/N=C/c2ccccn2)cc1OC		inactive: -1.54% [at 7.66 µM]
Cc1ccccc1OCCNc1cc(N2CCN(CCO)CC2)ccc1[N+](=O)[O-]	inconclusive: 31.6 µM [inhibitor, single point]	

From PubChem BioAssay AID624418 (National Center for Advancing Translational Sciences (NCATS), 2012)
